# Results from PubChem BioAssay AID504832 (National Center for Advancing Translational Sciences (NCATS), 2011).
# Screen size: about 310,000 compounds; about 18,000 (5.8%) were called active. The inconclusive results got no clear call from the source; some entries with a clear call stand among them for comparison. The call rests on the fitted dose curve; in most records, active means well fitted inhibition curve with a large enough effect; inconclusive means small, poorly fitted or top-dose-only effect, or another doubt; inactive means no such curve, though single readings can be large or run the other way. No potency is given beside an inconclusive call; the fits are too rough.
# Experiment: Primary qHTS for delayed death inhibitors of the malarial parasite plastid, 48 hour incubation
# Conditions: P. falciparum luciferase growth in erythrocytes; series mostly up to 28.7 µM; activity change, negative = inhibition: at the top concentration
# Method in brief: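 Firefly luciferase activity from engineered P. falciparum reports growth; inhibitors lower the luminescent signal. Cultures contained 2% hematocrit erythrocytes at 0.1% final parasitemia.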
# On the % scale 0 is the no-effect control and ±100 the full control effect; potency means the concentration at half of the fitted maximal effect; tags describe the fitted curve by direction and shape.
Structure (SMILES),Potency,"activity change, negative = inhibition"
CCOc1ccccc1N(CC(=O)NC1CCCC1)C(=O)CCC(=O)Nc1cc(C)on1,"inconclusive [inhibitor, single point]",
Cc1ccc(C2(C)NC(=O)N(CC(=O)N(Cc3ccccc3)C(C)(C)C)C2=O)cc1 (stereo unspecified),"inconclusive [inhibitor, partial curve]",
Cc1ccccc1C(=O)Nc1nnc(-c2ccco2)o1,"inconclusive [inhibitor, single point]",
CC(OC(=O)/C=C/c1ccccc1Cl)C(=O)NC1CCCCC1C (stereo unspecified),,inactive: -26.3%
CSc1ccc(NS(=O)(=O)c2ccc(-n3cnnn3)cc2)cc1,"inconclusive [inhibitor, single point]",
COc1ccccc1CN1C[C@@H]2C[C@@H](c3ccc(Cl)cc3)N3CCC[C@@]23C1=O,"inconclusive [inhibitor, full curve, poor fit]",
COc1ccc(CNC(=O)Cn2ccc3cc(S(=O)(=O)N4CCCC4)ccc32)cc1OC,,inactive: -7.36%
COCCN1Cc2cccc(C(=O)Nc3ccc(S(=O)(=O)N4CCCCC4)cc3)c2C1=O,"inconclusive [inhibitor, partial curve, poor fit]",
Cc1cccc(OCCCn2c(CO)nc3ccccc32)c1,,inactive: 37.2%
CCOc1ccccc1NC(=O)C(OC(=O)c1cc(C)oc1C)c1ccccc1 (stereo unspecified),active: 13.1 µM,
CN1c2ccccc2-c2nc3ccccc3n2C1c1ccco1 (stereo unspecified),active: 11.7 µM,
CN(C)CCCNC(NC(=O)/C=C/c1ccccc1)C(Cl)(Cl)Cl (stereo unspecified),"inconclusive [inhibitor, full curve, poor fit]",
COc1ccc(OC)c(C2C(C(=O)c3ccco3)=C(O)C(=O)N2Cc2cccnc2)c1 (stereo unspecified),"inconclusive [inhibitor, single point]",
COc1ccc(CN2CCC(n3nccc3NC(=O)C3CCCC3)CC2)c(OC)c1,"inconclusive [inhibitor, single point]",
CCN(CC)CCN(Cc1cc2ccc(C)cc2[nH]c1=O)C(=S)Nc1ccccc1C(=O)OC,active: 13.1 µM,
CC(C)(C)c1ccc(-n2ncc3c2CCCC3NC(=O)c2csnn2)cc1 (stereo unspecified),"inconclusive [inhibitor, partial curve, poor fit]",
CCN(CC(=O)Nc1ccc(OC)cc1)C(=O)COc1cccc2c1OC(C)(C)C2,"inconclusive [inhibitor, partial curve, poor fit]",
Brc1ccc2nc(-c3ccncc3)c(NC3CCCC3)n2c1,"inconclusive [inhibitor, partial curve]",
CC(C)CCNC(=O)C(c1ccncc1)N(C(=O)Cn1nnc(-c2ccc(F)cc2)n1)c1ccccc1F (stereo unspecified),"inconclusive [inhibitor, single point]",
COc1cc(CNc2ncn[nH]2)ccc1OCc1ccccc1C,,inactive: 17.2%
Cc1ccc2c(c1)N(CC(=O)N1CCCc3ccccc31)C(=O)CO2,,inactive: -16%
O=C(Nc1ccc(-c2nc3ncccc3o2)cc1)c1ccc([N+](=O)[O-])o1,active: 9.28 µM,

Structure (SMILES),Potency,"activity change, negative = inhibition"
CCCCn1c(N)c(N(Cc2ccccc2OC)C(=O)CN2C(=O)NC(C)(c3ccccc3)C2=O)c(=O)[nH]c1=O (stereo unspecified),,inactive: -4.84%
COc1cc(/C=N/Nc2nc3ccccc3[nH]c2=O)ccc1O,"inconclusive [inhibitor, partial curve, poor fit]",
CCOC(=O)C1=C(Cc2ccc(Cl)cc2)C(=O)c2ccccc2C1=O,"inconclusive [inhibitor, partial curve, poor fit]",
O=C(Nc1ccc(Cl)cc1)Nc1csc([N+](=O)[O-])c1,"inconclusive [inhibitor, full curve]",
Cc1cccc(C)c1NC(=O)CNC(=O)c1ccccc1OCc1ccccc1,"inconclusive [inhibitor, single point]",
COCCn1c(C)cc(C(=O)CSc2nc3ccccc3s2)c1C,,inactive: 49.2%
O=C(CCc1nc2ccccc2c(=O)[nH]1)Nc1cc(Cl)ccc1N1CCCCC1,active: 10.4 µM,
CCc1nnc(NC(=O)c2cccnc2SC)s1,,inactive: 0%
O=C(Nc1cccc(S(=O)(=O)N2CCOCC2)c1)C1CCN(S(=O)(=O)c2ccccc2)CC1,"inconclusive [inhibitor, single point]",
COc1c(F)c(F)c(C(=O)Nc2ccccc2N2CCN(C(C)=O)CC2)c(F)c1F,"inconclusive [inhibitor, single point]",
CCOC(=O)N1CCN(C(=O)CN(c2cc(Cl)ccc2OC)S(=O)(=O)c2ccccc2)CC1,"inconclusive [inhibitor, partial curve, poor fit]",
CC(C)CCCN1C(N(C)C)=NC[C@@H]1Cc1ccccc1,"inconclusive [inhibitor, single point]",
CCCOc1ccc(/C=C/C(=O)Nc2ccc([N+](=O)[O-])cc2)cc1,"inconclusive [inhibitor, full curve, poor fit]",
COc1ccccc1N=C(C)C1=C(O)CC(c2ccccc2)CC1=O (stereo unspecified),,inactive: 0.66%
CCC(c1nnnn1CCOC)N(Cc1cc2c(C)cc(C)cc2[nH]c1=O)CC1CCCO1 (stereo unspecified),"inconclusive [inhibitor, partial curve, poor fit]",
O=C(CNC(=O)c1ccccc1F)N/N=C/c1ccc2c(c1)OCO2,,inactive: 107%
CC(=O)OC(C(=O)NC1CCCCC1)c1ccc(Cl)c(Cl)c1 (stereo unspecified),"inconclusive [inhibitor, single point]",
CCOCCCNC(=O)c1ccc(/C=C2\Oc3ccccc3N(C)C2=O)cc1,"inconclusive [inhibitor, single point]",
O=S(=O)(c1ccc(F)cc1)c1nc(-c2ccccc2F)oc1N1CCCCC1,"inconclusive [inhibitor, single point]",
Cc1oncc1C(=O)Nc1cccc2ccccc12,,inactive: -16.3%
O=C1CN(C(=O)c2ccccc2)C(c2ccc(F)cc2)c2cc(Br)ccc2N1 (stereo unspecified),"inconclusive [inhibitor, single point]",
CCOC(=O)N1CCC(n2c(SCC(=O)c3ccccc3)nc3ccsc3c2=O)CC1,"inconclusive [inhibitor, partial curve]",

Structure (SMILES),Potency,"activity change, negative = inhibition"
COC(=O)c1ccccc1NC(=O)CSc1nnc(-c2cccnc2)n1C,"inconclusive [inhibitor, single point]",
O=C(CSc1nc2ccccc2[nH]1)c1ccc2c(c1)OCO2,,inactive: -89.8%
COc1cccc2sc(N(CCCN(C)C)C(=O)c3ccc(S(=O)(=O)N4CCCc5ccccc54)cc3)nc12,active: 10.4 µM,
CCCCOc1ccc(C2NC(=O)NC(C)=C2C(C)=O)cc1OCC (stereo unspecified),"inconclusive [inhibitor, partial curve]",
CCCCOc1cccc(NC(=O)CSc2nncn2C)c1,,inactive: 27.2%
COc1cccc(CN2CCN(C3CCN(c4cccc(C)c4C)CC3)CC2CCO)c1 (stereo unspecified),"inconclusive [inhibitor, partial curve, poor fit]",
COc1ccc(NS(=O)(=O)c2cccc(C(=O)N(C)Cc3ccc(SC)cc3)c2)cc1,"inconclusive [inhibitor, single point]",
Cc1cc(C)n(-c2nc3c(c(=O)[nH]c(=O)n3C)n2CC(O)COc2ccccc2C)n1 (stereo unspecified),"inconclusive [inhibitor, partial curve, poor fit]",
CCCc1cc(=O)[nH]c(SCC(=O)N2CCN(S(=O)(=O)c3ccccc3)CC2)n1,,inactive: -8.83%
COc1ccc(OC)c(/C=C/C(=O)N2CCN(S(=O)(=O)c3ccc(C)cc3C)CC2)c1,active: 11.7 µM,
COC(=O)C(CC(C)C)Oc1ccc2c(C)cc(=O)oc2c1 (stereo unspecified),"inconclusive [inhibitor, single point]",
CCCC(=O)c1c(NC)cc(C)oc1=O,"inconclusive [inhibitor, full curve, poor fit]",
CCN(C(=O)COC(=O)CC1CCCCC1)c1c(N)n(Cc2ccccc2)c(=O)[nH]c1=O,"inconclusive [inhibitor, partial curve, poor fit]",
Cc1ccc(NC(=O)Cn2cc(C(F)(F)F)cc(Cl)c2=O)cc1S(=O)(=O)N1CCCCC1,"inconclusive [inhibitor, single point]",
CC(C1CC1)N(C(=O)c1ccccc1[N+](=O)[O-])c1ccccc1 (stereo unspecified),"inconclusive [inhibitor, single point]",
CCC(C)C(NC(=O)c1ccccc1NC(=O)c1ccco1)C(=O)NNC(=O)c1ccc(OC)cc1 (stereo unspecified),active: 9.28 µM,
CCc1nc2ccc(C(=O)NCCCN3CCN(c4ccccc4F)CC3)cc2nc1CC,"inconclusive [inhibitor, single point]",
O=C(c1ccc(Cl)s1)N1CCc2ccccc21,,inactive: 170%
COC(=O)c1cccc(C23CC4(C2)[C@H](CN(Cc2ccc(-c5ccccc5)cc2)[C@@H]4c2ccccc2)C3c2ccc(Cl)nc2)c1 (stereo partly specified),"inconclusive [inhibitor, partial curve, poor fit]",
COc1cc(NC(=O)C2CC(c3cccc(Br)c3)=NO2)cc(OC)c1OC (stereo unspecified),"inconclusive [inhibitor, full curve]",
CCOc1cccc(-c2cc(-c3n[nH]c(=S)n3CC)c3ccccc3n2)c1,active: 13.1 µM,
CCCc1cc(C(=O)Nc2ccc(C(=O)c3ccc(F)cc3)cc2)n(C)n1,"inconclusive [inhibitor, single point]",
